# The campaign covered roughly 310,000 compounds. About 2,200 (0.71%) showed an effect of 50% or more. The effect is printed as a negative number. The list shows a part of the results.
# Biological target: human ether-à-go-go-related gene (hERG) potassium channel (human, UniProt Q12809)
# Assay: primary screen, population patch clamp on CHO cells stably expressing hERG
# Chain of human ether-à-go-go-related gene (hERG) potassium channel (Q12809 whole entry, looked up): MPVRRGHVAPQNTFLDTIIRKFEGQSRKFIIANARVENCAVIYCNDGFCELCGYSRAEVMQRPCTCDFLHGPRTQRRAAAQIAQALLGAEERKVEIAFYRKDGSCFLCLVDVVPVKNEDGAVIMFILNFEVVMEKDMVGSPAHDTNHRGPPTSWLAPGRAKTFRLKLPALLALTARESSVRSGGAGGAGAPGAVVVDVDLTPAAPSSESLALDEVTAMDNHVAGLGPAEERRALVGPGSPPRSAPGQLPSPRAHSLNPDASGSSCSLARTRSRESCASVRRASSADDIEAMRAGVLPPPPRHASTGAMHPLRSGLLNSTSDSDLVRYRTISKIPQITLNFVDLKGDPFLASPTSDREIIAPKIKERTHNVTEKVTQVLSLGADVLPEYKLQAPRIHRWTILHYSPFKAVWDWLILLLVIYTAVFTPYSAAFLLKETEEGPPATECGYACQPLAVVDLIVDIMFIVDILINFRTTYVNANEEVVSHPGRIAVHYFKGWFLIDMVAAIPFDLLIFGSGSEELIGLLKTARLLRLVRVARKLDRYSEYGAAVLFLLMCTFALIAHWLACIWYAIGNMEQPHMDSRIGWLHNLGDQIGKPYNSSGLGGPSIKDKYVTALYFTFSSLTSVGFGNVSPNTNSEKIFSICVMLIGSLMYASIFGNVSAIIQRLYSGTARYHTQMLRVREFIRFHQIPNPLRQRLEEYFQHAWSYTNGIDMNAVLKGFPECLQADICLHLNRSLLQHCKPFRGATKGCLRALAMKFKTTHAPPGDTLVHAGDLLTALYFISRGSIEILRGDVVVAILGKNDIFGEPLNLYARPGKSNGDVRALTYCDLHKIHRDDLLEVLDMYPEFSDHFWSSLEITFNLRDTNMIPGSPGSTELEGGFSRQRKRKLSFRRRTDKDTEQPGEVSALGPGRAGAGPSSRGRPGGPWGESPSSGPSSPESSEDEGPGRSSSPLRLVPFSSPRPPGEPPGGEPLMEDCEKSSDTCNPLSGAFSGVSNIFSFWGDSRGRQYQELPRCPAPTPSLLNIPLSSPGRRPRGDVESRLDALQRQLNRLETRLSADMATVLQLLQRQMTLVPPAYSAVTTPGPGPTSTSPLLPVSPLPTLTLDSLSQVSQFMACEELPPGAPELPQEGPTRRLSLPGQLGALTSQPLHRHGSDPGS
row,SMILES,"hERG current change (%, negative = inhibition) at 1uM"
1,CCN1CCc2nc3ccccc3c(C(=O)Nc3ccc(NC(C)=O)cc3)c2C1,12.4%
2,NC(=O)C1(c2ccccc2)CCOCC1,15.5%
3,O=C(C1CCN(S(=O)(=O)c2ccc(F)cc2)CC1)N1CCOCC1,17.6%
4,Cc1ccc(-c2c(C(=O)N/N=C/c3ccc(OC(C)C)cc3)nnn2-c2nonc2N)cc1,6.6%
5,COc1ccc2c(c1)CC(=O)NC=C2,5.32%
6,CCCN1Cc2cccc(C(=O)N3CCN(c4ccc(OC)cc4)CC3)c2C1=O,-0.503%
7,COc1ccc(OC)c(N(C)S(=O)(=O)c2cc3c(cc2C)NC(=O)CO3)c1,12.2%
8,COc1ccc(C(CCN2CCOCC2)c2c(OC)cc(OC)c3c(C)cc(=O)oc23)cc1 (stereo not drawn),-32.6%
9,CCN(CC)S(=O)(=O)c1cccc(NC(=O)CCNC(=O)c2ccc([N+](=O)[O-])cc2)c1,-11.1%
10,CCCOc1ccc(N2C(=O)CC(N(CCOC34CC5CC(CC(C5)C3)C4)C(C)=O)C2=O)cc1 (stereo not drawn),3.87%
11,CC(=O)Nc1ccc(C(=O)Nc2nnc(CCc3ccccc3)s2)cc1,12.3%
12,O=C(Cc1ccccc1F)Nc1ccc(Cl)nc1,2.16%
13,Cc1cc(OCC(=O)N2CCN(c3ncccn3)CC2)ccc1Cl,5.91%
14,Cc1cc2cc(CNC(=O)c3ccc4c(c3)OCO4)ccc2[nH]1,-1.16%
15,CCc1nnc(NC(=O)C(=O)NCCOC(=O)c2ccccc2)s1,20%
16,COC(=O)c1cn(C)c2ccc(S(=O)(=O)N3CC(C)CC(C)C3)cc2c1=O (stereo not drawn),-1.16%
17,CC1=C(C/C(C)=C/c2ccccc2)/C(=C/CO)[C@@H]2OC(=O)O[C@]2(C)C12CC2,14.7%
18,COc1cccc(OCc2cc(C(=O)N3CCC(C(O)C(C)C)CC3)no2)c1 (stereo not drawn),2.91%
19,CCn1c(SCC(=O)Nc2ccc3c(c2)OCCO3)nnc1C1CC1,8.65%
20,CCCC(=O)Nc1ccccc1NC(=O)CN(C)S(=O)(=O)c1ccc(C)cc1,5.65%
21,Cc1cnc(NC(=O)C2CCC(C(C)(C)C)CC2)s1 (stereo not drawn),14.2%
22,CCCc1ccc(C(=O)CCC(=O)O)cc1,3.47%
23,Cc1ccc(C(=O)CNc2ccc(C)c(Cl)c2)cc1,9.8%

row,SMILES,"hERG current change (%, negative = inhibition) at 1uM"
1,O=C(Nc1ccc(N2CCN(C(=O)c3ccc(Cl)cc3)CC2)cc1)c1ccc(Br)o1,-32.4%
2,Clc1ccc(-n2nnc(-c3cccnc3Cl)n2)cc1Cl,19.9%
3,Cc1ccc(C)n1-c1ccccc1N,6.72%
4,COC(=O)c1ccc(C)c(-n2c(C)cc(C=O)c2C)c1,15.7%
5,CN(C)/C=C1\NC(=S)N(c2ccc(Cl)cc2)C1=O,4.63%
6,Cc1ccc(C(=O)NCCc2nnc(SCC(=O)Nc3cccc(C(=O)O)c3)n2C)cc1,7.02%
7,COC(CNS(=O)(=O)c1ccc(S(=O)(=O)NC2CC2)cc1)OC,20.2%
8,O=C(COc1ccc(Cl)cc1)Nc1ccc2c(c1)OCO2,17.8%
9,Cc1cccc(N2CCN(Cc3nc(-c4ccccc4Cl)oc3C)CC2)n1,11.3%
10,O=C(Nc1ccccc1Cl)Oc1ccc(-c2ccccc2)cc1,5.71%
11,O=C(Nc1cccc(NC(=O)c2cccc(F)c2)c1)c1ccccc1,-4.32%
12,COc1ccc(C2C(C(=O)c3ccccc3)=C(C)Nc3nc4ccccc4n32)c(OC)c1 (stereo not drawn),19.3%
13,Cc1ccc(S(=O)(=O)N2CCN(S(=O)(=O)N3CCOCC3)CC2)cc1,5.71%
14,O=C(NCc1ccccc1)c1c(F)c(F)c(F)c(F)c1F,10%
15,CC(C)c1ccc(Oc2cccc(C(=O)/C(C#N)=C/N(C)C)c2)cc1,5.74%
16,O=C(CN1CCc2ccccc2C1)Nc1cc(S(=O)(=O)N2CCOCC2)ccc1N1CCOCC1,7.46%
17,N=C1C(c2nc3ccccc3s2)=C(O)CN1CCCO,-8.45%
18,Cc1cc(C(=O)O)cc(S(=O)(=O)N2CCOCC2)c1C,4.46%
19,CCCCNCc1cc(OCC)c(OCC(N)=O)cc1Br,3.45%
20,CCOc1nc2cnccc2n(CC(=O)Nc2ccc(C)c(C)c2)c1=O,14.2%
21,Cn1c(N2CCNCC2)nc2ccccc21,-0.492%
22,Cc1ccc(C23CC4CC(CC(C(=O)NC(C)C(N)=O)(C4)C2)C3)cc1 (stereo not drawn),4.87%
23,Cc1nn(-c2ccc(Cl)cc2)c(=O)c2ccccc12,8.78%

row,SMILES,"hERG current change (%, negative = inhibition) at 1uM"
1,O=C(CCS(=O)(=O)c1cccs1)Nc1ccc(C(=O)NCc2ccccc2)cc1,14%
2,Cc1ccc2c(CC(=O)NCc3cccs3)coc2c1,6.97%
3,CNC(=O)c1c(NC(=O)C2=COCCO2)sc2c1CCC(C)C2 (stereo not drawn),13%
4,O=C1CN(C(=O)COC(=O)CNC(=O)c2ccccc2)c2ccccc2N1,13.9%
5,Cc1nc(-c2ccccc2)sc1-c1n[nH]c(=S)n1C,21.8%
6,COc1cc(/C=C/C(=O)O)cc(OC)c1,-0.702%
7,CCOC(=O)[C@@H]1[C@H]2COc3cc(OC)ccc3[C@H]2N2C(=O)N(c3ccc(C)cc3)C(=O)[C@@]12C,12.6%
8,O=C(Nc1cccc(Cl)c1)Nc1nnc(-c2ccncc2)s1,1.77%
9,Cc1ccc(-c2n[nH]c(=O)c3ccccc23)cc1S(=O)(=O)N(C)CCO,4.26%
10,N=c1c2ccccc2nnn1-c1cccc(C(F)(F)F)c1,9.05%
11,O=c1[nH]snc1N1CCOCC1,13.2%
12,O=C(C[n+]1cc(-c2ccc(Cl)cc2)n2c1CCC2)Nc1nc(-c2ccccc2)cs1.[Cl-],13.4%
13,CCOC(=O)C1CCCN(Cc2cn(C)nc2-c2ccc3c(c2)OCCO3)C1 (stereo not drawn),6.35%
14,Cc1nc(C)c(C(=O)C2=C(O)C(=O)N(CCN(C)C)C2c2ccco2)s1 (stereo not drawn),-2.74%
15,O=C(O)C1C2CCC(O2)C1C(=O)Nc1cccc(F)c1 (stereo not drawn),9.03%
16,C/C(=C\c1ccc2c(c1)OCO2)C(=O)c1c(C)cc(C)[nH]c1=O,6.85%
17,O=C(NCC1CCCN(C(=O)c2cc(Cl)ccc2F)C1)c1ccc(F)cc1 (stereo not drawn),15.3%
18,COc1ccc(OC)c(C2C(C(=O)c3ccco3)=C(O)C(=O)N2CC2CCCO2)c1 (stereo not drawn),13.7%
19,CC(C)C[C@H](NC(=O)N1CCn2c1nc1ccccc12)C(=O)NCc1ccco1,9.59%
20,CCCCC(CCC(=O)Nc1nccs1)C(=O)O (stereo not drawn),10.2%
21,COc1ccc(C)cc1NC(=S)N1CCN(c2ncccn2)CC1,3.21%
22,O=C(c1cccc2nccnc12)N1CCCC(Nc2ccc(F)c(F)c2)C1 (stereo not drawn),9.5%
23,O=C(NCC(=O)N1CCCC1)c1ccc(Cl)cc1,7.65%

row,SMILES,"hERG current change (%, negative = inhibition) at 1uM"
1,Cc1c(C(=O)N2CCN(C(=O)c3ccco3)CC2)sc2nc(-c3ccc(F)cc3)cn12,-56.7%
2,CCCc1nc(NCCCOCC)c2nnn(Cc3ccccc3)c2n1,10.6%
3,CCC(C)NC(=O)CNC(=O)c1nn(-c2ccc(OC)cc2)c(=O)c2ccccc12 (stereo not drawn),12.3%
4,Cc1cc(N2CCN(C(=O)Nc3ccc(F)cc3F)CC2)c2ccccc2n1,-27.5%
5,Cc1ccc(C)c(OCC(=O)NC2CCCCCC2)c1,11.7%
6,CC(=O)Nc1nc(-c2cccc3ccccc23)cs1,7.5%
7,COc1ccc(C(=O)Nn2c(CC(C)C)nc3cc(Cl)ccc3c2=O)c(OC)c1,13.7%
8,O=C(/C=C/c1ccco1)NC1=NCCS1,9.82%
9,Cc1ccnc(NC(=O)C(C)N2C(=O)c3ccccc3C2=O)c1 (stereo not drawn),11.3%
10,COc1ccc(C(=O)NCc2cccnc2)cc1S(=O)(=O)N1CCOCC1,11.3%
11,COc1ccc(C2C3=C(CC(c4ccco4)CC3=O)Nc3ccccc3N2C(C)=O)cc1 (stereo not drawn),7.19%
12,c1ccc(CCc2nc(-c3ccncc3)no2)cc1,11.3%
13,O=C(OCC(=O)N1CCCc2ccccc21)c1cccnc1Cl,4.03%
14,C#CCn1c(=NC(=O)c2ccc(Br)s2)sc2cccc(OC)c21,18.1%
15,Br.CCOc1ccc(S(=O)(=O)NN2Cc3ccccc3C2=N)cc1,4.62%
16,O=C(C1=COCCO1)N1CCN(C(c2ccccc2)c2ccccc2)CC1,2.9%
17,Cc1ccc(/C=C2\C(=O)Nc3ccccc32)o1,-0.451%
18,COc1cc2c(cc1OC)CN(S(=O)(=O)c1ccc3c(c1)OCCO3)CC2,0.62%
19,COc1ccc(-n2c(CNC(=O)c3ccc(S(=O)(=O)N4CCCC4)cc3)n[nH]c2=S)cc1,5.38%
20,CCN1C(=O)/C(=C/N(C(C)=O)c2ccccc2)N(c2ccccc2)C1=S,1.59%
21,Cc1ncc([N+](=O)[O-])n1CC(=O)Nc1ccc2c(c1)OCO2,15.7%
